Test results from article PMC6919601, “Identification of Plasmodium dipeptidyl aminopeptidase allosteric inhibitors by high throughput screening” (PLoS ONE, 2019).
About 230 (0.21%) of roughly 110,000 compounds showed an effect of 50% or more. The list shows a part of the results.

These compounds were tested against DPAP1 (Plasmodium falciparum, UniProt Q8IIJ9) (assay: primary screen, percent inhibition; read by cleavage of a fluorogenic dipeptide substrate; higher = more effect of the substance).
Set-up: species or system P. falciparum D10 trophozoite lysates; single well
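Also: 30 min substrate incubation versus DMSO and 10 µM JCP410 controls.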

Chain of DPAP1 (Q8IIJ9 whole entry, looked up): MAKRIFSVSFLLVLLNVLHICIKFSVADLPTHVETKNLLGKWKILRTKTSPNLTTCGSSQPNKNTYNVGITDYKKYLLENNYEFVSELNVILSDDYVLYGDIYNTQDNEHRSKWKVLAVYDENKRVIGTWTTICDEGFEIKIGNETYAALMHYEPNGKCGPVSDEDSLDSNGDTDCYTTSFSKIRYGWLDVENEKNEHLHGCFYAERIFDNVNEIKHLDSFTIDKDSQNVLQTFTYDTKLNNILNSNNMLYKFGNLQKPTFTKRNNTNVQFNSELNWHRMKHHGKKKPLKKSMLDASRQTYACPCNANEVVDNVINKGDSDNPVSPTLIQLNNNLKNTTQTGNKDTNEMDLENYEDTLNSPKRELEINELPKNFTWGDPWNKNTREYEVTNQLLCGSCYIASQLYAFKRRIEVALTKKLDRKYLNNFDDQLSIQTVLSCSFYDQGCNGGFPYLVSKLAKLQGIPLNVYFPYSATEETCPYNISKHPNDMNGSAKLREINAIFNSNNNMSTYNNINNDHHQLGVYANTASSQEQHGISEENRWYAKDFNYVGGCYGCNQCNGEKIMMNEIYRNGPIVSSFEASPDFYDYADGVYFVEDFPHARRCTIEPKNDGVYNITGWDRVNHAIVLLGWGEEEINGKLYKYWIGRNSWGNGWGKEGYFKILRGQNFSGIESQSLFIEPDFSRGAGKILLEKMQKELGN

Row | Structure (SMILES) | % Inhibition @ 10 uM [%]
1 | COc1ccc(CNC(=O)c2cc3n(n2)C(C(F)(F)F)CC(c2ccc(OC)cc2)N3)cc1 (centres unmarked) | -0.318
2 | O=C(NC1(C(F)(F)F)Oc2ccccc2O1)N1CCc2ccccc2C1 | -1.2
3 | O=CN1CCN(Cc2cc(Cl)cc(Cl)c2O)CC1 | -4.04
4 | CC(C)C(=O)NCCc1nc2ccccc2n1CCc1ccccc1 | 1.64
5 | O=C(CNS(=O)(=O)c1ccccc1)Nc1ccc(F)cc1F | -3.95
6 | Cc1ccc(C)c(Cn2c(C)c(CNC3CCCC3)c(C(=O)O)c2C)c1 | 2.8
7 | CCOc1ccc(CCNc2nnc3c4ccccc4n(CC)c3n2)cc1 | -1.87
8 | CSCCC(C(=O)N1CCOCC1)N1C(=O)C2C3c4ccccc4C(c4ccccc43)C2C1=O (centres unmarked) | -0.941
9 | CSc1ccc(C2C(C#N)=C(N)Oc3nc(C)nc(O)c32)cc1 (centres unmarked) | -0.446
10 | Cc1cc(F)c(F)cc1C(=O)N1CCOCC1 | -4.18
11 | O=[N+]([O-])c1cc(CN2CCSCC2)ccc1Cl | -0.969
12 | N#C/C(=C\c1ccc(Cl)cc1Cl)C(=O)NCC1CCCO1 (centres unmarked) | 9.47
13 | CCOC(=O)c1c(-c2ccccc2)csc1NC(=O)Cn1nc(C(F)(F)F)c2c1CCC2 | 7.16
14 | CC(C)Cn1cc(NC(=O)NCC2CCN(Cc3cccc(Cl)c3)CC2)c2ccccc2c1=O | -3.83
15 | CCOC(=O)C1=C(C)N=c2s/c(=C\c3coc4ccccc4c3=O)c(=O)n2C1c1ccccc1 (centres unmarked) | -9.6
16 | O=C(CN1C(=O)c2ccccc2S1(=O)=O)NC1CC2CCC1C2 (centres unmarked) | -0.116
17 | O=C1CN=C(c2ccccc2Br)c2cc(Cl)ccc2N1 | -3.09
18 | CC1(C)CC(=O)C2=C(C1)c1c(ccc3ccccc13)NC2c1cc([N+](=O)[O-])ccc1O (centres unmarked) | -2.18
19 | CSc1nccc(N2CCN(c3ccc(F)cc3)CC2)n1 | -10.7
20 | Cc1ccc(C23CC4CC(CC(O)(C4)C2)C3)cc1N | 2.58
21 | Cc1ccc(S(=O)(=O)N2CCC(C(=O)Nc3ccccc3C(=O)O)CC2)cc1 | 0.5
22 | Cc1nc2c(-c3ccc(F)cc3)c(C)nn2c(C)c1CCC(=O)NCCc1ccccc1 | 2.93
23 | CC(C)CCNC(=O)c1csc2c1CCC(C)C2 (centres unmarked) | -9.17
24 | OC1CCN(C2CCC(c3ccccc3)CC2)CC1 (centres unmarked) | -4.75
25 | CC(C)Cc1cc(C(=O)N2CCN(Cc3noc(CCC(=O)N(C)C4CCCCC4)n3)CC2)no1 | -4.46

Row | Structure (SMILES) | % Inhibition @ 10 uM [%]
26 | COCCN1C(=O)c2[nH]nc(-c3ccccc3O)c2C1c1cccc(Oc2ccccc2)c1 (centres unmarked) | 8.13
27 | COc1cc(C(=O)n2nc(-c3cccnc3)nc2NCc2ccc(F)cc2)cc(OC)c1OC | -2.92
28 | CN1CCN(S(=O)(=O)c2ccc(Cl)cc2)CC1 | -3.77
29 | CC(C)(C)C(=O)C1C2CCC1C(O)C2 (centres unmarked) | -4.01
30 | CC1(C)Cc2ccccc2/C(=C/C(=O)NC2CCCCC2)N1 | 1.9
31 | COc1ccc(C2N(C(=O)N3CCOCC3)CCN2S(=O)(=O)c2ccc(C)cc2)cc1 (centres unmarked) | -1.92
32 | CC(=O)Nc1ccc2[nH]c(C(F)(F)F)nc2c1 | -2.78
33 | CCOC(=O)c1cnn(-c2cc(C)c3ccccc3n2)c1N | 1.43
34 | CCCn1nc(NS(C)(=O)=O)c2cc3cccc(C)c3nc21 | 1
35 | O=C(c1cc2ccc3cccnc3c2[nH]1)N1CCN(c2ccccn2)CC1 | 0.886
36 | CCOC(=O)c1cc2c(=O)n3ccccc3nc2n(C)/c1=N\C(=O)/C=C/c1ccccc1 | -1.2
37 | O=C(NC1(C(F)(F)F)C(=O)Nc2c1c(=O)[nH]c(=O)n2-c1ccccc1F)c1cccs1 (centres unmarked) | 4.75
38 | O=C(Cn1nnc(-c2ccc3c(c2)OCO3)n1)NCCCN1CCOCC1 | 0.883
39 | O=C(Cn1ncc2c3ccccc3nc-2c1O)Nc1cccnc1 | -3.73
40 | COc1cc2c(cc1OC)C(Nc1cc(C)ccc1C)=NC(C)(C)C2 | -0.725
41 | Cc1cc(NC(=O)c2cc(-c3ccco3)on2)nn1Cc1ccc(Cl)cc1 | -10
42 | Clc1cc(Cl)c2c(-c3ccccc3)n(-c3ccccc3)nc(-c3ccccc3)c1-2 | 0.757
43 | COc1ccc(CCNC(=O)c2cccc3c2SCCC3=O)cc1OC | 0.658
44 | CCn1c2ccccc2c2cc(NC(=O)COC)ccc21 | 4.83
45 | CCCCN(CCCNC(=O)Cn1ncc2ccsc2c1=O)Cc1ccccc1 | 0.44
46 | COc1ccccc1C(=O)NCc1ccc(Cl)c(Cl)c1 | 1.83
47 | CCOc1ccc(-c2csc(-c3nc(-c4ccc(OCC)cc4)cs3)n2)cc1 | 0.273
48 | O=C(Cc1c[nH]c2ccccc12)NCCc1c[nH]c2ccc(OCc3ccccc3)cc12 | 6.48
49 | NC(=O)C1CCN(C(=O)CCCc2nnc3n4nc(-c5ccccc5)nc4c4ccccc4n23)CC1 | -4.69
50 | O=S(=O)(c1ccc(-n2cnnn2)cc1)N1CCN(c2ncccn2)CC1 | 5.43

Row | Structure (SMILES) | % Inhibition @ 10 uM [%]
51 | Cc1cc(C)c(S(=O)(=O)N2CCC(C(=O)O)CC2)c(C)c1 | -3.08
52 | COc1ccc(/C=C/C=C2C(=O)NC(=O)NC2=O)cc1 | 1
53 | COc1ccc2c(=O)c(Oc3cc(C)cc(C)c3)coc2c1 | 6.08
54 | COc1cc(/C=C2\C(=O)NC(=O)N(C)C2=O)cc(OC)c1OC | 2.3
55 | CNCCC1Sc2ccccc2Oc2ccccc21 (centres unmarked) | 0.24
56 | Cc1ccc(C2CC3=Nc4ccccc4N(C(=O)C4CC4)C(c4cccnc4)C3=C(O)C2)cc1 (centres unmarked) | -3.77
57 | NC(=O)C1CCN(CCc2ccccc2)CC1 | -4.75
58 | CN(Cc1ccc(F)c(F)c1)CC(O)c1ccccc1 (centres unmarked) | 0.472
59 | CCOc1nc2c(c(=O)n(C)c(=O)n2C)n1Cc1cccc(F)c1 | 5.53
60 | COc1ccc(Cl)cc1N(CC(=O)NCC1CCCO1)S(=O)(=O)c1ccc(C)cc1 (centres unmarked) | 7.93
61 | CC1CCCC(C)N1C(=O)c1ccc(CNS(=O)(=O)c2cccc(C(F)(F)F)c2)cc1 (centres unmarked) | 4.31
62 | CCC(C(=O)NCc1ccc(C)o1)n1nc(C)c2sc3ccccc3c2c1=O (centres unmarked) | -1.75
63 | Nc1nonc1Sc1nc2ccccc2[nH]1 | -0.216
64 | Cn1c(=O)c2c(nc3n(Cc4ccccn4)c(-c4ccc(Br)cc4)cn23)n(C)c1=O | 2.38
65 | CCOC(=O)C1CCN(c2cc(C)c3ccccc3n2)CC1 | 2.16
66 | COc1cc(OC)c(OC)cc1/C=C1\N=C(c2cc(OC)c(OC)c(OC)c2)OC1=O | -12.5
67 | COc1ccc(-c2nc3sc(-c4ccccc4)cc3c(=O)o2)cc1 | 1.75
68 | COc1ccccc1N(CC(=O)N1CCN(C)CC1)S(C)(=O)=O | 0.755
69 | COc1ccc(OCCCCSC(C)C)cc1 | -4.58
70 | CC(NC(=O)C1CCN(C(=O)c2cc3sccc3n2C)CC1)c1ccc2c(c1)OCCO2 (centres unmarked) | 1.8
71 | CC(C)C[C@H](NC(c1ccc(-c2ccc(S(C)(=O)=O)cc2)cc1)c1nccs1)C(=O)NC1(C#N)CC1 (some centres unmarked) | -8.26
72 | O=C(CCC1=Nc2ncc(Br)cc2S(=O)(=O)N1)N1CCOCC1 | -3.64
73 | CC(=C1C(=O)c2ccccc2C1=O)N1CCN(Cc2ccc3c(c2)OCO3)CC1 | 1.52
74 | CC(C)OP(=O)(OC(C)C)C(Nc1ccc2ccccc2c1)c1ccccc1O (centres unmarked) | 7.11
75 | CCc1nn(CC(=O)NCCCN(CC)CC)c(=O)c2cc3sccc3n12 | 3.4

Row | Structure (SMILES) | % Inhibition @ 10 uM [%]
76 | O=C(NCCCc1ccccc1)C1CCN(c2cnccn2)CC1 | -2.71
77 | CCOC(=O)C1CCCN(Cc2sccc2C)C1 (centres unmarked) | 3.1
78 | Cc1c(C(=O)NCCOC23CC4CC(C)(CC(C)(C4)C2)C3)sc2nc3n(c(=O)c12)CCCCC3 | 4.41
79 | CC(=O)NS(=O)(=O)c1ccc(NC(=O)COc2ccc(C)cc2)cc1 | -0.473
80 | O=C(NCCc1c[nH]c2ccc(OCc3ccccc3)cc12)c1ccc([N+](=O)[O-])cc1 | -3.81
81 | C=CCN1C(=O)C2(C(C#N)=C(N)Oc3n[nH]c(CC)c32)c2ccccc21 (centres unmarked) | -4.61
82 | COc1ccc(C(=O)c2cc3ccccc3cc2N)cc1 | -0.891
83 | Cc1cc(C)n(-c2nc3c(c(=O)[nH]c(=O)n3C)n2CC(O)COc2ccccc2C)n1 (centres unmarked) | 4.67
84 | CCOc1cc2c(cc1/C=C1/NC(=O)N(Cc3ccc(Cl)cc3)C1=O)OCO2 | -0.0626
85 | COc1ccccc1C(=O)N(CCN(C)C)c1nc2ccc(Cl)cc2s1 | -9.48
86 | OCCN1CCN(Cc2ccc(F)c(F)c2)CC1 | 0.247
87 | COCCNC(=O)CN1Cc2ccccc2C1=O | -0.501
88 | O=C(/C=C/c1ccccc1)Nc1ccc(Br)cn1 | -3.48
89 | CC(C)(C)c1ccc(C(=O)NCCn2ccc3ccccc32)cc1 | 1.97
90 | Cc1cccc(C)c1NC(=O)C(c1ccc(Cl)cc1)N(C)C(=O)CN1C(=O)c2ccccc2C1=O (centres unmarked) | 14.4
91 | Nc1cc(Oc2ccccc2)cc(Oc2cccnc2)c1 | 3.09
92 | CN1CSC2=C(C#N)C(c3ccccc3Cl)CC(=O)N2C1 (centres unmarked) | 56.6
93 | O=C(CSc1c2c(nc3ccc(Cl)cc13)CCCC2)NCc1cccnc1 | -4.96
94 | COc1ccc(N2C3=C(C(=O)CC2c2ccccc2)C(=O)CC(C)(C)C3)cc1 (centres unmarked) | -6.43
95 | CCN(CC)CCN(C)Cc1ccc(F)c(Br)c1 | 3.18
96 | O=C(CNS(=O)(=O)c1ccc(Br)cc1)NCc1cccnc1 | -2.09
97 | CC(C)(C)NC(=O)c1cccc2c1-c1ccccc1C2=O | -8.44
98 | Cc1ccc(N2C(=O)C3CC=CCC3C2=O)cc1C (centres unmarked) | 8.06
